{"source": "the supplement of paper PMC12217912", "parents": {"B1": {"name": "TEV protease; numbered along this chain (parent)", "chain": "MGESLFKGPRDYNPISSSICHLTNESDGHTTSLYGIGFGPFIITNKHLFRRNNGTLVVQSLHGVFKVKDTTTLQQHLVDGRDMIIIRMPKDFPPFPQKLKFREPQREERICLVTTNFQTKSMSSMVSDTSCTFPSGDGIFWKHWIQTKDGQCGSPLVSTRDGFIVGIHSASNFTNTNNYFTSVPKNFMELLTNQEAQQWVSGWRLNADSVLWGGHKVFMVKPEEPFQPVKEATQL"}}, "variants_of": "B1", "assay": "raw area under fraction-flipped curve 0-4 h after induction (AUC4h, not background-subtracted), DNA-recorder readout of cleavage of the substrate (dimensionless); higher = more cleavage of the substrate by the protease variant", "details": "temperature: 34 °C; time window: 0-4 h after rhamnose induction", "experimental": "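In vivo DNA recorder in E. coli TOP10(DE3) ΔrhaA at 34 °C. Each TEVp single-site mutant (parent TEVp 0) is paired with a single-site variant of the 7-mer TEVs (canonical ENLYFQ|S). The substrate sits between flexible linkers in a Bxb1-sfGFP-TEVs-SsrA fusion, so cleavage stabilises Bxb1 and speeds flipping of a recombination array, read by NGS. The value is the raw area under the fraction-flipped curve over 0-4 h after rhamnose induction (AUC4h), with ≥20 reads per time point. It is not background-subtracted; inactive controls average about 0.047.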", "note": "This is one part of the list. The full chains were built here from the parent and the listed change. Inactive controls read about 0.05.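 Also: Bxb1 expression induced with 0.2% (w/v) L-rhamnose at OD600 near 0.5, cultures sampled hourly, flipped fraction per protease–substrate barcode pair counted by paired-end Illumina sequencing.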", "data": [{"variant": "MGESLFKGPRDYNLISSSICHLTNESDGHTTSLYGIGFGPFIITNKHLFRRNNGTLVVQSLHGVFKVKDTTTLQQHLVDGRDMIIIRMPKDFPPFPQKLKFREPQREERICLVTTNFQTKSMSSMVSDTSCTFPSGDGIFWKHWIQTKDGQCGSPLVSTRDGFIVGIHSASNFTNTNNYFTSVPKNFMELLTNQEAQQWVSGWRLNADSVLWGGHKVFMVKPEEPFQPVKEATQL", "note": "[P14L]", "values": [{"measurement": "area with substrate ENLAFQS", "result": 0.0661}, {"measurement": "area with substrate ENLCFQS", "result": 0.0815}, {"measurement": "area with substrate ENLDFQS", "result": 0.0738}, {"measurement": "area with substrate ENLEFQS", "result": 0.0717}, {"measurement": "area with substrate ENLHFQS", "result": 0.0902}, {"measurement": "area with substrate ENLKFQS", "result": 0.0805}, {"measurement": "area with substrate ENLLFQS", "result": 0.0683}, {"measurement": "area with substrate ENLMFQS", "result": 0.079}, {"measurement": "area with substrate ENLNFQS", "result": 0.0736}, {"measurement": "area with substrate ENLQFQS", "result": 0.0513}, {"measurement": "area with substrate ENLRFQS", "result": 0.0879}, {"measurement": "area with substrate ENLSFQS", "result": 0.0468}, {"measurement": "area with substrate ENLWFQS", "result": 0.085}]}, {"variant": "MGESLFKGIRDYNPISSSICHLTNESDGHTTSLYGIGFGPFIITNKHLFRRNNGTLVVQSLHGVFKVKDTTTLQQHLVDGRDMIIIRMPKDFPPFPQKLKFREPQREERICLVTTNFQTKSMSSMVSDTSCTFPSGDGIFWKHWIQTKDGQCGSPLVSTRDGFIVGIHSASNFTNTNNYFTSVPKNFMELLTNQEAQQWVSGWRLNADSVLWGGHKVFMVKPEEPFQPVKEATQL", "note": "[P9I]", "values": [{"measurement": "area with substrate ENLAFQS", "result": 0.062}, {"measurement": "area with substrate ENLDFQS", "result": 0.0489}, {"measurement": "area with substrate ENLEFQS", "result": 0.0637}, {"measurement": "area with substrate ENLHFQS", "result": 0.0632}, {"measurement": "area with substrate ENLKFQS", "result": 0.0913}, {"measurement": "area with substrate ENLLFQS", "result": 0.0741}, {"measurement": "area with substrate ENLNFQS", "result": 0.0803}, {"measurement": "area with substrate ENLPFQS", "result": 0.0635}, {"measurement": "area with substrate ENLVFQS", "result": 0.0986}, {"measurement": "area with substrate ENLWFQS", "result": 0.0705}]}, {"variant": "MGESLPKGPRDYNPISSSICHLTNESDGHTTSLYGIGFGPFIITNKHLFRRNNGTLVVQSLHGVFKVKDTTTLQQHLVDGRDMIIIRMPKDFPPFPQKLKFREPQREERICLVTTNFQTKSMSSMVSDTSCTFPSGDGIFWKHWIQTKDGQCGSPLVSTRDGFIVGIHSASNFTNTNNYFTSVPKNFMELLTNQEAQQWVSGWRLNADSVLWGGHKVFMVKPEEPFQPVKEATQL", "note": "[F6P]", "values": [{"measurement": "area with substrate ENLAFQS", "result": 0.0724}, {"measurement": "area with substrate ENLEFQS", "result": 0.065}, {"measurement": "area with substrate ENLFFQS", "result": 0.0831}, {"measurement": "area with substrate ENLHFQS", "result": 0.0519}, {"measurement": "area with substrate ENLKFQS", "result": 0.0649}, {"measurement": "area with substrate ENLQFQS", "result": 0.0744}, {"measurement": "area with substrate ENLRFQS", "result": 0.0684}, {"measurement": "area with substrate ENLVFQS", "result": 0.0806}]}, {"variant": "MGESLWKGPRDYNPISSSICHLTNESDGHTTSLYGIGFGPFIITNKHLFRRNNGTLVVQSLHGVFKVKDTTTLQQHLVDGRDMIIIRMPKDFPPFPQKLKFREPQREERICLVTTNFQTKSMSSMVSDTSCTFPSGDGIFWKHWIQTKDGQCGSPLVSTRDGFIVGIHSASNFTNTNNYFTSVPKNFMELLTNQEAQQWVSGWRLNADSVLWGGHKVFMVKPEEPFQPVKEATQL", "note": "[F6W]", "values": [{"measurement": "area with substrate ENLAFQS", "result": 0.0643}, {"measurement": "area with substrate ENLDFQS", "result": 0.0618}, {"measurement": "area with substrate ENLFFQS", "result": 0.0664}, {"measurement": "area with substrate ENLHFQS", "result": 0.0533}, {"measurement": "area with substrate ENLKFQS", "result": 0.0772}, {"measurement": "area with substrate ENLNFQS", "result": 0.0648}, {"measurement": "area with substrate ENLPFQS", "result": 0.0814}, {"measurement": "area with substrate ENLQFQS", "result": 0.0702}, {"measurement": "area with substrate ENLSFQS", "result": 0.0697}, {"measurement": "area with substrate ENLTFQS", "result": 0.0756}, {"measurement": "area with substrate ENLWFQS", "result": 0.0631}]}, {"variant": "MGESLDKGPRDYNPISSSICHLTNESDGHTTSLYGIGFGPFIITNKHLFRRNNGTLVVQSLHGVFKVKDTTTLQQHLVDGRDMIIIRMPKDFPPFPQKLKFREPQREERICLVTTNFQTKSMSSMVSDTSCTFPSGDGIFWKHWIQTKDGQCGSPLVSTRDGFIVGIHSASNFTNTNNYFTSVPKNFMELLTNQEAQQWVSGWRLNADSVLWGGHKVFMVKPEEPFQPVKEATQL", "note": "[F6D]", "values": [{"measurement": "area with substrate ENLAFQS", "result": 0.0577}, {"measurement": "area with substrate ENLDFQS", "result": 0.077}, {"measurement": "area with substrate ENLEFQS", "result": 0.056}, {"measurement": "area with substrate ENLFFQS", "result": 0.0707}, {"measurement": "area with substrate ENLKFQS", "result": 0.0703}, {"measurement": "area with substrate ENLLFQS", "result": 0.0548}, {"measurement": "area with substrate ENLNFQS", "result": 0.0659}, {"measurement": "area with substrate ENLVFQS", "result": 0.0933}]}, {"variant": "MGESLFGGPRDYNPISSSICHLTNESDGHTTSLYGIGFGPFIITNKHLFRRNNGTLVVQSLHGVFKVKDTTTLQQHLVDGRDMIIIRMPKDFPPFPQKLKFREPQREERICLVTTNFQTKSMSSMVSDTSCTFPSGDGIFWKHWIQTKDGQCGSPLVSTRDGFIVGIHSASNFTNTNNYFTSVPKNFMELLTNQEAQQWVSGWRLNADSVLWGGHKVFMVKPEEPFQPVKEATQL", "note": "[K7G]", "values": [{"measurement": "area with substrate ENLAFQS", "result": 0.0514}, {"measurement": "area with substrate ENLDFQS", "result": 0.0616}, {"measurement": "area with substrate ENLEFQS", "result": 0.0591}, {"measurement": "area with substrate ENLFFQS", "result": 0.0782}, {"measurement": "area with substrate ENLHFQS", "result": 0.0856}, {"measurement": "area with substrate ENLKFQS", "result": 0.0848}, {"measurement": "area with substrate ENLNFQS", "result": 0.0543}, {"measurement": "area with substrate ENLPFQS", "result": 0.0677}, {"measurement": "area with substrate ENLSFQS", "result": 0.0721}, {"measurement": "area with substrate ENLVFQS", "result": 0.0729}, {"measurement": "area with substrate ENLWFQS", "result": 0.0585}]}]}
